Measurements: the supplement of paper PMC12645437, “Orthogonal IMiD-Degron Pairs Induce Selective Protein Degradation in Cells” (ACS Chemical Biology, 2025)
This is one part of the list.
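Further: jurkat cells carrying a lentiviral library of mutant zinc finger degrons fused to EGFP plus mCherry, mCherry+ cells FACS sorted, degron abundance counted by next-generation sequencing.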

Each sequence was assayed against no compound (DMSO) (assay: log2 fold change of degron read counts, EGFP-low vs EGFP+ sorted cells; higher = lower degron-EGFP level without compound (poor expression or instability)). Details: compound: DMSO control; 18 h.
LHCEICGFICTQKGNLLRHIKL was tested, and the “log2 fold change of degron read counts” value was 0.756.
With FACNVCGALFTQKGNLLRHIKL the “log2 fold change of degron read counts” value was -0.398.
In the case of FSCPVCGASFTQKGNLLRHIKL, the “log2 fold change of degron read counts” value is reported as -1.37.
In the case of FMCEICGANFTQKGNLLRHIKL, the “log2 fold change of degron read counts” value is reported as -1.88.
In the case of FMCPICGHRFTQKGNLLRHIKL, the “log2 fold change of degron read counts” value is reported as -0.196.
FWCEQCGAQFTQKGNLLRHIKL was tested, and the “log2 fold change of degron read counts” value was -1.52.
For FACEICGRTFTQKGNLLRHIKL, the “log2 fold change of degron read counts” value was -1.73.
In the case of FTCPICGHVFTQKGNLLRHIKL, the “log2 fold change of degron read counts” value is reported as -0.248.
For FSCDVCGAPFTQKGNLLRHIKL, the “log2 fold change of degron read counts” value was -0.983.
In the case of FHCNQCGARFTQKGNLLRHIKL, the “log2 fold change of degron read counts” value is reported as -0.185.
For LACEICGFACTQKGNLLRHIKL, the “log2 fold change of degron read counts” value was 0.0326.
With FTCEICGRYFTQKGNLLRHIKL the “log2 fold change of degron read counts” value was -0.133.
In the case of FVCNICGAGFTQKGNLLRHIKL, the “log2 fold change of degron read counts” value is reported as -0.171.
FVCNICGAFFTQKGNLLRHIKL was tested, and the “log2 fold change of degron read counts” value was 0.227.
FDCNVCGASFTQKGNLLRHIKL was tested, and the “log2 fold change of degron read counts” value was -2.33.
With LCCNQCGFSCTQKGNLLRHIKL the “log2 fold change of degron read counts” value was 0.453.
In the case of LHCEICGFWCTQKGNLLRHIKL, the “log2 fold change of degron read counts” value is reported as 1.13.
With FTCEVCGAFFTQKGNLLRHIKL the “log2 fold change of degron read counts” value was -1.02.
In the case of FECNQCGHSFTQKGNLLRHIKL, the “log2 fold change of degron read counts” value is reported as -1.46.
LVCEICGFCCTQKGNLLRHIKL was tested, and the “log2 fold change of degron read counts” value was -0.0564.
FWCNICGAGFTQKGNLLRHIKL was tested, and the “log2 fold change of degron read counts” value was 0.814.
With LICPICGFGCTQKGNLLRHIKL the “log2 fold change of degron read counts” value was 1.06.
In the case of FECEICGRLFTQKGNLLRHIKL, the “log2 fold change of degron read counts” value is reported as -0.848.
For FGCPICGRSFTQKGNLLRHIKL, the “log2 fold change of degron read counts” value was -0.738.
With FMCNICGACFTQKGNLLRHIKL the “log2 fold change of degron read counts” value was -0.18.
In the case of FFCEICGRHFTQKGNLLRHIKL, the “log2 fold change of degron read counts” value is reported as -1.14.
In the case of FWCNICGALFTQKGNLLRHIKL, the “log2 fold change of degron read counts” value is reported as 1.35.
With FICEICGHYFTQKGNLLRHIKL the “log2 fold change of degron read counts” value was -1.27.
For FICEQCGAGFTQKGNLLRHIKL, the “log2 fold change of degron read counts” value was -2.18.
With FNCEVCGASFTQKGNLLRHIKL the “log2 fold change of degron read counts” value was -2.12.
For LACEICGFKCTQKGNLLRHIKL, the “log2 fold change of degron read counts” value was -0.731.
With FKCEICGAGFTQKGNLLRHIKL the “log2 fold change of degron read counts” value was -1.46.
